# IC50 is the fitted dose that halves viability relative to control wells, and lower means more sensitive; a limit (>, <) means that the fit lies beyond the doses tested. AUC sums up the same curve from the lowest dose to the 256-fold higher top dose; it is 1 without any effect and falls as sensitivity rises. For some of these results: An inferred top dose comes from the curve model; the source does not state it. For some of these results: An entry number marks a drug with two screens in the source, which often give different values.
# Columns and labels:
# Experiment in all cases: Viability of human cancer cell lines after 72 h of drug (GDSC screen)
# [1] = compound: CC(=O)O[C@@]12CO[C@@H]1C[C@H](O)[C@@]1(C)C(=O)[C@H](O)C3=C(C)[C@@H](OC(=O)[C@H](O)[C@@H](NC(=O)OC(C)(C)C)c4ccccc4)C[C@@](O)([C@@H](OC(=O)c4ccccc4)[C@H]21)C3(C)C [Docetaxel]; settings: top dose 0.0125 µM
# Protocol: (§1)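 Human cancer cell lines in 384-well plates, medium with 10% serum, drug for 72 h over a 256-fold dose range (nine 2-fold or five 4-fold steps up to the top dose). Adherent lines were fixed and stained with the nucleic acid dye Syto60, suspension lines read with resazurin; signal relative to control wells, capped at 0 and 100%. One two-parameter sigmoid per drug and line, fitted in a mixed model over all curves with the slope shared within a line.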
# [2] = compound: CC1(C)CNc2cc(NC(=O)c3cccnc3NCc3ccncc3)ccc21 [AMG-706]; settings: top dose 2 µM; top dose inferred
# Protocol: as §1
# [3] = compound: CC1=C2C[C@H]3[C@@H](CC=C4C[C@@H](O)CC[C@@]43C)[C@@H]2CC[C@]12O[C@@H]1C[C@H](C)CN[C@H]1[C@H]2C [Cyclopamine]; settings: top dose 16 µM; top dose inferred
# Protocol: as §1
# [4] = compound: CCOc1nc(NC(=O)Cc2cc(OC)ccc2OC)cc(N)c1C#N [JNK Inhibitor VIII]; settings: top dose 10 µM; top dose inferred
# Protocol: as §1
# [5] = compound: CN1CCN(c2ccc([N+](=O)[O-])c3no[n+]([O-])c23)CC1 [NSC-207895]; settings: top dose 20 µM; top dose inferred
# Protocol: as §1
# [6] = compound: COC(=O)[C@H](CCSC)NC(=O)c1ccc(NC[C@@H](N)CS)cc1-c1ccccc1 [FTI-277]; settings: top dose 1.024 µM; top dose inferred
# Protocol: as §1
# [7] = compound: COCC[n+]1c2c(n(Cc3cnccn3)c1C)C(=O)c1ccccc1C2=O [YM155]; settings: top dose 5.12 µM
# Protocol: as §1
# [8] = compound: C[C@]1(O)C[C@@H](c2nc(-c3ccc4ccc(-c5ccccc5)nc4c3)c3c(N)nccn32)C1 [OSI-906]; settings: top dose 2.56 µM; top dose inferred
# Protocol: as §1
# [9] = compound: Cc1ccc(C(=O)N(CCCN)[C@@H](c2nc3cc(Cl)ccc3c(=O)n2Cc2ccccc2)C(C)C)cc1 [SB-715992]; settings: top dose 0.128 µM; top dose inferred
# Protocol: as §1
# [10] = compound: Cc1sc2c(c1C)C(c1ccc(Cl)cc1)=N[C@@H](CC(=O)OC(C)(C)C)c1nnc(C)n1-2 [JQ1]
# Protocol: as §1
# [11] = compound: O=C(/C=C/c1cccc(S(=O)(=O)Nc2ccccc2)c1)NO [Belinostat]; settings: top dose 20 µM; top dose inferred
# Protocol: as §1
# [12] = compound: OCCCNc1cc(-c2ccnc(Nc3cccc(Cl)c3)n2)ccn1 [CGP-60474]; settings: top dose 0.256 µM; top dose inferred
# Protocol: as §1
# [13] = compound: c1ccc2c(CCNc3ccc(Nc4ccncc4)cc3)c[nH]c2c1 [JNJ-26854165]; settings: top dose 10 µM
# Protocol: as §1
# [14] = top dose 2.56 µM, screen: GDSC drug entry 163
# [15] = top dose 1 µM, screen: GDSC drug entry 1218, top dose inferred
Cell Line,AUC [1],IC50 [1],AUC [2],IC50 [2],AUC [3],IC50 [3],AUC [4],IC50 [4],AUC [5],IC50 [5],AUC [6],IC50 [6],AUC [7],IC50 [7],AUC [8],IC50 [8],AUC [9],IC50 [9],"AUC [10, 14]","IC50 [10, 14]",AUC [11],IC50 [11],AUC [12],IC50 [12],AUC [13],IC50 [13],"AUC [10, 15]","IC50 [10, 15]"
"RCC10RGB (kidney, adherent)",0.971,> 0.0125 µM,0.97,> 2 µM,0.883,> 16 µM,0.969,> 10 µM,0.942,> 20 µM,0.842,> 1.02 µM,0.807,> 5.12 µM,0.774,2.31 µM,0.972,> 0.128 µM,0.372,0.0507 µM,0.916,> 20 µM,0.713,0.118 µM,0.926,> 10 µM,,
"RF-48 (stomach, adherent)",0.973,> 0.0125 µM,0.984,> 2 µM,0.977,> 16 µM,0.985,> 10 µM,0.503,1.28 µM,0.946,> 1.02 µM,0.036,< 0.02 µM,0.953,> 2.56 µM,0.657,0.023 µM,0.715,0.704 µM,0.188,0.126 µM,0.607,0.0328 µM,0.946,> 10 µM,0.894,> 1 µM
"RH-1 (rhabdomyosarcoma, adherent)",0.433,0.000528 µM,0.989,> 2 µM,0.992,> 16 µM,0.991,> 10 µM,0.691,3.87 µM,0.992,> 1.02 µM,0.017,< 0.02 µM,0.744,0.692 µM,0.575,0.0123 µM,0.991,> 2.56 µM,0.157,0.143 µM,0.87,0.175 µM,0.833,5.02 µM,0.991,> 1 µM
"RKO (large intestine, adherent)",0.583,0.0013 µM,0.988,> 2 µM,0.977,> 16 µM,0.976,> 10 µM,0.922,> 20 µM,0.988,> 1.02 µM,0.031,< 0.02 µM,0.981,> 2.56 µM,0.629,0.0177 µM,0.31,0.049 µM,0.35,0.497 µM,0.719,0.0634 µM,0.914,> 10 µM,0.987,> 1 µM
"ROS-50 (B-cell leukaemia, suspension)",0.985,> 0.0125 µM,0.984,> 2 µM,0.98,> 16 µM,0.98,> 10 µM,0.983,> 20 µM,0.98,> 1.02 µM,0.118,< 0.02 µM,0.905,> 2.56 µM,0.901,> 0.128 µM,0.738,0.941 µM,0.363,0.47 µM,0.742,0.0976 µM,0.956,> 10 µM,0.983,> 1 µM
"RPMI-6666 (Hodgkin lymphoma, suspension)",0.927,> 0.0125 µM,0.982,> 2 µM,0.981,> 16 µM,0.981,> 10 µM,0.903,> 20 µM,0.848,1.01 µM,0.055,< 0.02 µM,0.926,> 2.56 µM,0.528,0.00971 µM,0.673,0.538 µM,0.209,0.141 µM,0.657,0.048 µM,0.886,> 10 µM,0.825,0.767 µM
"RPMI-8226 (myeloma, suspension)",0.669,0.00215 µM,0.991,> 2 µM,0.932,> 16 µM,0.991,> 10 µM,0.905,> 20 µM,0.989,> 1.02 µM,0.018,< 0.02 µM,0.991,> 2.56 µM,0.71,0.0285 µM,0.819,1.21 µM,0.255,0.279 µM,0.787,0.0962 µM,0.885,8.46 µM,0.8,0.411 µM
"RPMI-8402 (T-cell lymphoblastic leukaemia, suspension)",0.931,> 0.0125 µM,0.991,> 2 µM,0.898,14.4 µM,0.991,> 10 µM,0.887,16.2 µM,0.987,> 1.02 µM,0.023,< 0.02 µM,0.985,> 2.56 µM,0.405,0.00459 µM,0.801,1.02 µM,0.121,0.105 µM,0.757,0.0756 µM,0.863,6.48 µM,0.969,> 1 µM
"RPMI-8866 (chronic myeloid leukaemia, suspension)",0.753,0.0039 µM,0.987,> 2 µM,0.988,> 16 µM,0.982,> 10 µM,0.907,> 20 µM,0.986,> 1.02 µM,0.021,< 0.02 µM,0.983,> 2.56 µM,0.909,> 0.128 µM,0.912,> 2.56 µM,0.177,0.147 µM,0.745,0.0759 µM,0.775,3.66 µM,0.968,> 1 µM
"Ramos-2G6-4C10 (Burkitt lymphoma, suspension)",0.76,0.00381 µM,0.991,> 2 µM,0.977,> 16 µM,0.99,> 10 µM,0.93,> 20 µM,0.99,> 1.02 µM,0.017,< 0.02 µM,0.986,> 2.56 µM,0.668,0.0218 µM,0.773,0.853 µM,0.228,0.235 µM,0.673,0.0448 µM,0.884,8.12 µM,0.901,0.969 µM
"SCH (stomach, adherent)",0.817,0.00772 µM,0.988,> 2 µM,0.988,> 16 µM,0.988,> 10 µM,0.82,12.6 µM,0.988,> 1.02 µM,0.149,0.0233 µM,0.988,> 2.56 µM,0.988,> 0.128 µM,0.988,> 2.56 µM,0.971,> 20 µM,0.797,0.132 µM,0.948,> 10 µM,0.987,> 1 µM
"SHP-77 (small cell lung carcinoma, semi-adherent)",0.963,> 0.0125 µM,0.983,> 2 µM,0.976,> 16 µM,0.982,> 10 µM,0.948,> 20 µM,0.99,> 1.02 µM,0.715,1.2 µM,0.99,> 2.56 µM,0.796,0.0529 µM,0.894,2.5 µM,0.361,0.541 µM,0.808,0.116 µM,0.903,> 10 µM,0.991,> 1 µM
"SK-ES-1 (Ewing sarcoma, semi-adherent)",0.863,0.0119 µM,0.985,> 2 µM,0.985,> 16 µM,0.985,> 10 µM,0.893,> 20 µM,0.969,> 1.02 µM,0.109,< 0.02 µM,0.561,0.238 µM,0.752,0.0451 µM,0.74,0.816 µM,0.198,0.147 µM,0.706,0.0638 µM,0.84,7.56 µM,0.983,> 1 µM
"SK-UT-1 (soft tissue, adherent)",0.716,0.00298 µM,0.971,> 2 µM,0.968,> 16 µM,0.983,> 10 µM,0.949,> 20 µM,0.977,> 1.02 µM,0.229,0.0572 µM,0.981,> 2.56 µM,0.717,0.0309 µM,0.598,0.289 µM,0.913,> 20 µM,0.769,0.0885 µM,0.965,> 10 µM,0.98,> 1 µM
"SLVL (B-cell lymphoma, suspension)",0.955,> 0.0125 µM,0.986,> 2 µM,0.981,> 16 µM,0.986,> 10 µM,0.924,> 20 µM,0.974,> 1.02 µM,0.034,< 0.02 µM,0.981,> 2.56 µM,0.727,0.037 µM,0.777,1.09 µM,0.139,0.0836 µM,0.692,0.0573 µM,0.913,> 10 µM,0.978,> 1 µM
"ST486 (Burkitt lymphoma, suspension)",0.954,> 0.0125 µM,0.989,> 2 µM,0.983,> 16 µM,0.989,> 10 µM,0.826,10.3 µM,0.99,> 1.02 µM,0.051,< 0.02 µM,0.962,> 2.56 µM,0.59,0.0137 µM,0.524,0.184 µM,0.217,0.21 µM,0.622,0.0332 µM,0.961,> 10 µM,0.864,0.716 µM
"SU-DHL-4 (B-cell lymphoma, suspension)",0.997,> 0.0125 µM,0.997,> 2 µM,0.89,9.47 µM,0.997,> 10 µM,0.986,> 20 µM,0.996,> 1.02 µM,0.006,< 0.02 µM,0.997,> 2.56 µM,0.676,0.0213 µM,0.96,> 2.56 µM,0.152,0.174 µM,0.58,0.0249 µM,0.997,> 10 µM,0.997,> 1 µM
"SU-DHL-6 (B-cell lymphoma, suspension)",0.743,0.00308 µM,0.995,> 2 µM,0.871,8.89 µM,0.995,> 10 µM,0.903,14.1 µM,0.995,> 1.02 µM,0.008,< 0.02 µM,0.989,> 2.56 µM,0.521,0.00901 µM,0.593,0.269 µM,0.058,< 0.0781 µM,0.556,0.0218 µM,0.886,6.21 µM,0.913,0.772 µM
